For the experiment, the target named is SARS-CoV-2 NSP14 (Severe acute respiratory syndrome coronavirus 2, UniProt P0DTD1). Briefly: biochemical.
Setting [1] is: LUM % inhibition, read-out: SARS-CoV-2 NSP14 inhibition: IC50.
Where [2] appears, read: LUM % inhibition, read-out: SARS-CoV-2 NSP14 inhibition: Maximum response.
Where [3] appears, read: fit of concentration-response curve.
[4] abbreviates: TDI-015051 series, retrospective VS set, biochemical MTase assay, read-out: Merged IC50.
Where [5] appears, read: Hill slope of the concentration-response fit.
The mark [6] stands for this setting: maximum response, LUM % inhibition, read-out: SARS-CoV-2 NSP14 inhibition: Maximum response (%).
Setting [7] is: read-out: SARS-CoV-2 NSP14 inhibition: IC50.

Results on 17 compounds are retold here after article PMC12434519 (ACS Medicinal Chemistry Letters, 2025).

Like-named read-outs stand apart in the source and are kept apart here.

As usually defined, the IC50 is the concentration at which inhibition is half-maximal. On to `Cc1cc(CC(=O)N2CCCC(O)(CCNC(=O)c3c(C)ccc(C)c3C)C2)ccc1O` (centres unmarked) [RU-0834191], for which the IC50 under setting [1] was more than 125 µM. For the same compound, the Emax under setting [2] came out at 14.9%. For the same compound, the “SARS-CoV-2 NSP14 inhibition: Hill slope” value under setting [3] is recorded as 33.8.
As to `Cc1cc(CC(=O)N2CCC(O)(C(C)CNC(=O)Cc3c(C)cccc3F)C2)ccc1O` (centres unmarked) [RU-0834196], under setting [1], the IC50 is more than 125 µM. Further, the Emax under setting [2] is 10.7%. Besides, under setting [3], the “SARS-CoV-2 NSP14 inhibition: Hill slope” value is 174.
Take `Cc1cc(C(=O)NCC2(C)CCC(NC(=O)c3cnn4ccn(C)c34)C2)cc(C)c1O` (centres unmarked) [RU-0834107]: under setting [1], the IC50 was more than 125 µM. Further, under setting [2], the Emax came out at 10.9%. The “SARS-CoV-2 NSP14 inhibition: Hill slope” value under setting [3] is reported as 84.
Regarding `Cc1c(F)ccc(C(=O)NCc2cccc(CNC(=O)c3cc(C)c(=O)n(C)c3)c2)c1C` [RU-0834103], under setting [1], the IC50 was more than 125 µM. Besides, the Emax under setting [2] worked out at 23.2%. Under setting [3], the “SARS-CoV-2 NSP14 inhibition: Hill slope” value is given as 1.68.
On to `Cc1ccccc1CNC(=O)c1cc(S(=O)(=O)N2CCc3ccccc3C2)c(C)n1CCO` [TDI-013770, Cc1ccccc1CNC(=O)c1cc(S(=O)(=O)N2CCc3ccccc3C2)c(C)n1CCO], for which the 50% inhibitory concentration (IC50) under setting [4] is 0.077 µM.
As for `O=C(N[C@@H]1CC[C@H](CNC(=O)c2cnc3ccccn23)C1)c1ccc(O)c(F)c1` [RU-0834157], the IC50 under setting [1] is more than 125 µM. In addition, the Emax under setting [2] turned out to be 11.3%. In addition, the “SARS-CoV-2 NSP14 inhibition: Hill slope” value under setting [3] worked out at 99.4.
In the case of `Cc1cccc(CNC(=O)c2cc3n(n2)CCCN(Cc2cccc(F)c2)C3=O)c1` [RU-0833877], under setting [1], the 50% inhibitory concentration (IC50) was more than 125 µM. Further, the Emax under setting [2] worked out at 21.6%. The “SARS-CoV-2 NSP14 inhibition: Hill slope” value under setting [3] is 1.55.
As to `Cc1cc(CC(=O)NCc2cccc(NC(=O)c3cccc4ncccc34)c2)n[nH]1` [RU-0833686], under setting [5], the “SARS-CoV-2 NSP14 inhibition: Hill slope” value turned out to be 0.831. Further, the Emax under setting [6] was determined as 5.67%. The IC50 under setting [7] was more than 62.5 µM.
On to `COc1ccc(NC(=O)COc2ccc(N(C)S(=O)(=O)c3ccc(F)cc3)cc2)cc1Cl` [RU-0833920], for which the IC50 under setting [1] is more than 125 µM. Moreover, the Emax under setting [2] was determined as 11.7%. Under setting [3], the “SARS-CoV-2 NSP14 inhibition: Hill slope” value is reported as 19.3.
Turning to `Cc1ccc(NS(=O)(=O)c2cc(C(=O)NCc3ccc4c(c3)OCCO4)ccc2C)cc1` [RU-0833931], the IC50 under setting [1] was more than 125 µM. Also, the Emax under setting [2] was found to be 12.1%. For the same compound, the “SARS-CoV-2 NSP14 inhibition: Hill slope” value under setting [3] came out at 2.18.
Regarding `CN(C)C(=O)CNc1cccc(C(=O)N2CCC[C@H](CO)C2)c1` [RU-0833626], the “SARS-CoV-2 NSP14 inhibition: Hill slope” value under setting [5] was determined as 0.165. Also, under setting [6], the Emax came to 1.92%. Further, the IC50 under setting [7] was more than 62.5 µM.
Regarding `Cc1ccc(S(=O)(=O)N2CCCC2)cc1C(=O)N[C@H](C)c1ccc(Br)cc1` [RU-0833643], the “SARS-CoV-2 NSP14 inhibition: Hill slope” value under setting [5] worked out at 16.9. Further, under setting [6], the Emax came out at 3.54%. Also, the IC50 under setting [7] was more than 62.5 µM.
In the case of `Cc1c(S(=O)(=O)c2ccc3[nH]ncc3c2)cc(C(=O)NCc2c(F)ccc3ncn(C4CC4)c23)n1C` [TDI-015974, Cc1c(S(=O)(=O)c2ccc3[nH]ncc3c2)cc(C(=O)NCc2c(F)ccc3ncn(C4CC4)c23)n1C], the IC50 under setting [4] was found to be 6.15e-06 µM.
For `Cc1cc(C(=O)NCc2cc(C(=O)NCc3ccc(F)cc3C)ccn2)ccc1O` [RU-0834130], the IC50 under setting [1] is more than 125 µM. Also, the Emax under setting [2] came to 14.5%. For the same compound, under setting [3], the “SARS-CoV-2 NSP14 inhibition: Hill slope” value was found to be 14.
For `O=C(NCCn1ncc2c(NCCc3ccccc3)ncnc21)C1CC(=O)N(c2ccc(F)cc2)C1` (centres unmarked) [RU-0833867], under setting [5], the “SARS-CoV-2 NSP14 inhibition: Hill slope” value was 128. Under setting [6], the Emax came to 27.7%. In addition, the IC50 under setting [7] was more than 125 µM.
In the case of `O=C(Cn1cnc2ccccc2c1=O)Nc1cccc(S(=O)(=O)C2CCCC2)c1` [RU-0833908], under setting [1], the IC50 is more than 125 µM. Further, the Emax under setting [2] was 13.4%. Further, the “SARS-CoV-2 NSP14 inhibition: Hill slope” value under setting [3] worked out at 0.0894.
Consider `CN(c1ccccc1)S(=O)(=O)c1cccc(NC(=O)Cn2c(=O)cnc3ccccc32)c1` [RU-0833927], for which the IC50 under setting [1] is more than 125 µM. The Emax under setting [2] was found to be 14%. Under setting [3], the “SARS-CoV-2 NSP14 inhibition: Hill slope” value was determined as 511.
